Results: PubChem BioAssay AID1963576 (National Center for Advancing Translational Sciences (NCATS), 2024)
Among all 46,000 compounds or so, about 60 (0.1%) were called active. Roughly 3% stayed inconclusive and do not appear here. The call rests on the fitted dose curve; in most records, active means well fitted inhibition curve with a large enough effect; inconclusive means small, poorly fitted or top-dose-only effect; inactive means no such curve, though single readings can be large or run the other way. This is one part of the list.

Assay: Primary qHTS assay for Inhibitors of ovarian cancer metastasis using an organotypic tumor microenvironment (TME) model. Further: nearly all actives have a fitted effect of over 65% in size.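 On activity change, negative = inhibition: plate controls were DMSO wells for no effect and tomatine positive control wells for full effect.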
Conditions: SKOV3ip1-GFP adhesion/invasion on 3D omental model, fluorescence; series mostly up to 45.8 µM; activity change, negative = inhibition: at the top concentration
Summary of the method: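 Adhesion/invasion was scored as fixed GFP-labeled SKOV3ip1 cell counts (488/509 nm), normalized to DMSO and tomatine controls. Cancer cells in serum-free medium, with four compound doses (0.36-46 umol/L), sat 2 hr at RT then 16 hr at 37 C on a 48 hr fibroblast/mesothelial/ECM culture.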

Activity change, negative = inhibition, inactive:
COc1ccc(NC(=O)CSC2=Nc3ccccc3C3=NC(CCC(=O)NCCc4ccccc4)C(=O)N23)c(OC)c1 (configuration not stated) 2.82%
COc1cccc(CNC(=O)c2nn(C)c3c2CS(=O)(=O)c2ccccc2-3)c1 2.69%
CC(C)CN(CCCNC(=O)c1cn(C)c2ccc(S(=O)(=O)N(C)C3CCCCC3)cc2c1=O)CC(C)C 1.29%
COc1cccc(NC(=O)C(CCSC)NC(=O)C2CCC(C)CC2)c1 (configuration not stated) -2.76%
COc1ccc(CNC(=O)c2cc(C)nc3c2c(C)nn3-c2cccc(Cl)c2C)cc1 -4.11%
Cc1cccc(OC(=O)c2cc(-c3ccc(Cl)cc3)on2)c1C 1.27%
CCOc1ccc(C2=CC(c3cc(Br)ccc3F)n3ncnc3N2)cc1Cl (configuration not stated) 2.96%
CC[C@@]1(O)C[C@H](O[C@H]2C[C@H](N(C)C)[C@H](O[C@H]3C[C@H](O)[C@H](O[C@H]4CCC(=O)[C@H](C)O4)[C@H](C)O3)[C@H](C)O2)c2c(cc3c(c2O)C(=O)c2c(O)cccc2C3=O)[C@@H]1C(=O)OC 5.82%
O=C(NCCc1csc(-c2ccc(F)cc2)n1)c1c(F)cccc1Cl -4.28%
O=C(COC(=O)c1cc(-c2ccccc2)nc2c(Cl)cccc12)c1ccc(F)cc1 -6.51%
CN(C(=O)CSc1nc2ccccc2n1Cc1cccc(C(F)(F)F)c1)c1ccccc1 -7.38%
CCOc1ccc(-n2c(=O)c3c(C)c(C)sc3n(Cc3cc(=O)n4cc(Cl)ccc4n3)c2=O)cc1 -2.54%
CC(C)CSc1oc(-c2ccco2)nc1S(=O)(=O)c1ccc(Br)cc1 -1.03%
Cc1nn(CC(=O)Nc2cccc(C(F)(F)F)c2)c(=O)c2nn(-c3ccccc3)c(C)c12 -3.57%
COc1ccccc1CN1CCN(C2CCN(C(=O)NC(C)C)CC2)C(=O)C1=O -4.28%
CN(C)CCOc1cc(-c2cn[nH]c2)ccc1NC(=O)C1COc2ccccc2O1 (configuration not stated) 16.6%
COc1ccc(Nc2ncc3c(n2)CCN(C(=O)OC(C)(C)C)C3)cc1 16.9%
Cc1ccc(NC(=O)c2ccc3[nH]c(C)cc(=O)c3c2)c(C)c1 -1.12%
Cc1ccc(NC(=O)Cc2coc3c(C)c(C)ccc23)cc1Cl -21.5%
Cc1ccc(Nc2cc(C(=O)NCc3cccs3)c3ccccc3n2)c(C)c1 11.3%
Cc1ccc(CCNC(=O)c2cc(-c3ccc(Cl)cc3)n[nH]2)cc1 -14.6%
CCOc1ccccc1C(=O)N(Cc1cccs1)c1ccc(Cl)cc1 -6.56%
COc1cc2ccccc2cc1C(=O)Nc1ccc2oc(-c3ccccc3)nc2c1 -22.9%
Cc1ccccc1CNC(=O)CCC(=O)N1CC2CCCN2c2ccccc21 (configuration not stated) -1.71%
Cc1cc(O)c(-c2ccnc3cc(-c4ccccc4)nn23)cc1Cl 6.28%
CCc1ccc2c(c1)-c1ccccc1S(=O)(=O)N2CC(=O)N1CCC(C)CC1 -1.55%
COc1ccccc1CNc1ncnc2c1c(-c1ccccc1)cn2-c1cccc(C)c1 -14.8%
COc1ccccc1C(=O)Nc1nc2nc(C)c(Cc3ccccc3)c(=O)n2[nH]1 -3.65%
Cc1ccc(NC(=O)Cn2c(-c3cncs3)nc3ccccc32)cc1Br -1.64%
CCCc1nccn1S(=O)(=O)c1cc(Br)ccc1OC -6.11%
Cc1nn(CCCC(=O)Nc2cccc(F)c2)c(=O)c2c1sc1ccccc12 -0.284%
CCN(C(=O)Cn1c(=O)n(CC2CCC(C(=O)NC)CC2)c(=O)c2sccc21)c1ccccc1 (configuration not stated) 0.893%
O=C(Nc1ccccc1)c1cn(-c2ccccc2)nc1-c1ccccc1 5.14%
Cc1cccc(-n2c3nc(=O)[nH]c(=O)c-3cc3c(C)nn(-c4ccccc4)c32)c1C -5.67%
CC(=O)N1CCCC1c1nc2ccccc2n1Cc1cccc(Cl)c1 (configuration not stated) -2.98%
COc1ccc(-c2nc(C)c(CCNC(=O)C(=O)Nc3ccccc3C#N)s2)cc1OC -1.6%
COc1cc(C2CC(=O)c3c([nH]c(C(=O)OCC4CCCCC4)c3C)C2)cc(OC)c1OC (configuration not stated) 18.4%
CC1=C(c2ccc(F)cc2)S(=O)(=O)NC1=NCc1ccccc1F 12.7%
Cc1ccc(-c2noc(-c3ccc(NCc4ccco4)c([N+](=O)[O-])c3)n2)cc1 -9.33%
COc1cc(NC(=O)CC(c2ccc(C)cc2)N2Cc3ccccc3C2=O)cc(OC)c1 (configuration not stated) -17.3%
Cc1ccccc1NS(=O)(=O)c1ccc2[nH]cc(C(=O)NC(C)c3ccccc3)c(=O)c2c1 (configuration not stated) 6.4%
CCc1nn2c(=O)cc(COC(=O)c3ccc(NC(=O)c4cccs4)cc3)nc2s1 21.8%
COc1ccccc1C(=O)Nc1nc2nc(-c3ccccc3)cc(=O)n2[nH]1 7.31%
c1cc(CN2CCCNCCNCCCNCC2)ccc1CN1CCCNCCNCCCNCC1 0.847%
COc1ccccc1CCNC(=O)C(=O)NCC(c1cccs1)S(=O)(=O)c1ccc(C)cc1 (configuration not stated) 2.51%
COc1ccc(Nc2nnc(-c3cc4c(ccc5ccccc54)oc3=O)s2)cc1 1.27%
CCOc1ccccc1CNC(=O)Cn1ncn2nc(-c3cccs3)cc2c1=O -2.76%
O=C1C(=O)N(C2CCN(C(=O)c3ccc(Cl)cc3)CC2)CCN1Cc1ccc(F)cc1 31.8%
Cc1cc(Nc2ccccc2C)nc(-n2nc(C)cc2C)n1 -7.03%
Cc1n[nH]c(C)c1S(=O)(=O)N1CCCC(C(=O)Nc2ccc(Br)cc2)C1 (configuration not stated) 6.06%
COc1ccc(CCNC(=O)c2cc(C)nc3c2c(C)nn3-c2ccc(C)cc2)cc1OC -7.38%
CCN(CC)CCCNC(=O)c1ccc2nc(N3CCCCC3)sc2c1 9.84%
CCOc1ccccc1CN1CCc2nc(N3CCN(c4ccccc4F)CC3)ncc2C1 1.14%
CCOc1ccccc1C(=O)N(Cc1cc(OC)c(OC)c(OC)c1)C1CCS(=O)(=O)C1 (configuration not stated) -0.498%
CCCN(C(=O)c1cn(C)c(=O)c2ccccc12)c1ccccc1C 22.7%
Cc1nc(CC(=O)Nc2cc(Cl)ccc2C)cs1 -0.989%
COc1cccc(C(=O)CC2(O)C(=O)Nc3ccc(Cl)cc32)c1 (configuration not stated) 2.27%
COc1ccc(N2CCN(S(=O)(=O)CCNC(=O)C3CC(=O)N(c4ccccc4)C3)CC2)cc1 (configuration not stated) -7.62%
CCCOc1ccc(CN(C(=O)c2cc(=O)c3ccc(C)cc3o2)C2CCS(=O)(=O)C2)cc1 (configuration not stated) 7.72%
O=C(CCS(=O)(=O)c1cc(Br)cc2c1N(C(=O)C1CC1)CC2)N1CCN(c2ccc(F)cc2)CC1 16.3%
COc1cc(C2c3c(oc4ccc(F)cc4c3=O)C(=O)N2c2nc(C)c(C)s2)cc(OC)c1OC (configuration not stated) 2.04%
CCOc1ccc(NC(=O)CSc2nc3c(c(=O)[nH]2)CCCC3)cc1 5.97%
CC(C)n1cnc2c(NCCc3ccc(O)cc3)nc(-c3csc4ccccc34)nc21 -72%
COc1ccc(C)cc1NC(=O)COCc1cc(-c2cccs2)on1 7.2%
COc1ccc(CCNC(=O)CCCn2c(=O)c3ccccc3n(Cc3ccc(C)cc3)c2=O)cc1OC 13.5%
CC1(C)[C@H](O[C@H]2O[C@H](C(=O)O)[C@@H](O)[C@H](O)[C@H]2O[C@@H]2O[C@H](C(=O)O)[C@@H](O)[C@H](O)[C@H]2O)CC[C@@]2(C)[C@H]1CC[C@]1(C)[C@H]2C(=O)C=C2[C@H]3C[C@@](C)(C(=O)O)CC[C@]3(C)CC[C@]21C -15.4%
CCOc1ccccc1Nc1sc(C(=O)c2ccccc2)c(N)c1C(=O)NCCc1ccccc1 6.29%
COc1ccccc1OCCn1c(COc2cc(C)ccc2C)nc2ccccc21 -2.29%
Cc1nn2c(C)c(C(=O)N3CCN(c4ccccc4)CC3)cnc2c1-c1ccccc1 -3.01%
CC(C)CNc1nc(NC(C)(C)C)nc(Oc2ccc(=O)n(-c3ccccc3)n2)n1 -29.3%
Cc1ccccc1NC(=O)c1c(C)oc2ccc(O)c(CN3CCCC3)c12 3.95%

outcome, inactive:
CCn1cc(C(=O)N2CCN(c3ccc(OC)cc3)CC2)c(=O)c2cc(S(=O)(=O)N(C)C3CCCCC3)ccc21
CCOc1ccc(S(=O)(=O)N(C(=O)c2ccncc2)c2ccc3oc(C)c(C(=O)OC)c3c2)cc1
COc1ccc(C)cc1NC(=O)CC(=O)Nc1ccc2nc3n(c(=O)c2c1)CCCCC3
COc1cccc(Cn2c(CNS(=O)(=O)c3ccc4c(c3)CCCC4)nc3cccnc32)c1
CC(=O)c1ccc(NC(=O)Cn2ncc3c(C)n(Cc4ccc(F)cc4)c(C)c3c2=O)cc1
CC1CCN(S(=O)(=O)c2ccc3c(c2)N(CC(=O)N2CCN(c4ccccc4)CC2)C(=O)CO3)CC1
COc1ccc(NC(=O)CN2C(=O)CCc3cc(S(=O)(=O)N4CCOCC4)ccc32)cc1Cl
COc1cc2c(C(=O)N(C)c3cc(Cl)ccc3OC)cn(CC(C)C)c(=O)c2cc1OC
COc1ccccc1NC(=O)CSC1=Nc2ccccc2N=C(c2ccc(F)cc2)C1
CCc1ccc(CNC(=O)COc2cc(=O)n(CC)c3ccccc23)cc1
COC(=O)c1c(NC(=O)c2nc(SCc3cccc(C)c3)ncc2Cl)sc2c1CCCC2
COc1ccc(-n2nnc(-c3nc(-c4cccs4)no3)c2N)cc1OC
Cc1ccc(C)c(CNC(=O)C2CCN(c3nc4ccccc4nc3C(F)(F)F)CC2)c1
CCNC(=O)c1ccc2nc(CCc3ccccc3)oc2c1
COc1ccc2nc(N(Cc3cccnc3)C(=O)C3COc4ccccc4O3)sc2c1 (configuration not stated)
O=C(CN1CCSc2ccccc21)NCc1ccccc1F
COc1cc(C)ccc1OCCSc1nc(-c2cccc(C)c2)nc2cc(=O)[nH]n12
Cc1ccc(N(C)C(=O)Cn2cnc3onc(-c4ccc(F)cc4)c3c2=O)cc1C
Cc1ccc2ncc(C(=O)NCCc3ccc(S(N)(=O)=O)cc3)c(=O)n2c1
O=C(c1ccc(Cl)cc1)N(Cc1ccco1)Cc1ccco1
COc1cccc(CNC(=O)CNS(=O)(=O)c2ccc3nc(C)sc3c2)c1
